# Reference: publication PMC4336329 (PLoS ONE, 2015)
# The whole screen tested about 310,000 compounds, of which about 14,000 (4.5%) showed an effect of 50% or more. The effect is printed as a negative number. This is one part of the list.
# Biological target: human ether-à-go-go-related gene (hERG) potassium channel (human, UniProt Q12809)
# Assay: primary screen, population patch clamp on CHO cells stably expressing hERG
# 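Note: peak tail current of the secondary pulse compared with the same well before compound.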
# Chain of human ether-à-go-go-related gene (hERG) potassium channel (Q12809 whole entry, looked up): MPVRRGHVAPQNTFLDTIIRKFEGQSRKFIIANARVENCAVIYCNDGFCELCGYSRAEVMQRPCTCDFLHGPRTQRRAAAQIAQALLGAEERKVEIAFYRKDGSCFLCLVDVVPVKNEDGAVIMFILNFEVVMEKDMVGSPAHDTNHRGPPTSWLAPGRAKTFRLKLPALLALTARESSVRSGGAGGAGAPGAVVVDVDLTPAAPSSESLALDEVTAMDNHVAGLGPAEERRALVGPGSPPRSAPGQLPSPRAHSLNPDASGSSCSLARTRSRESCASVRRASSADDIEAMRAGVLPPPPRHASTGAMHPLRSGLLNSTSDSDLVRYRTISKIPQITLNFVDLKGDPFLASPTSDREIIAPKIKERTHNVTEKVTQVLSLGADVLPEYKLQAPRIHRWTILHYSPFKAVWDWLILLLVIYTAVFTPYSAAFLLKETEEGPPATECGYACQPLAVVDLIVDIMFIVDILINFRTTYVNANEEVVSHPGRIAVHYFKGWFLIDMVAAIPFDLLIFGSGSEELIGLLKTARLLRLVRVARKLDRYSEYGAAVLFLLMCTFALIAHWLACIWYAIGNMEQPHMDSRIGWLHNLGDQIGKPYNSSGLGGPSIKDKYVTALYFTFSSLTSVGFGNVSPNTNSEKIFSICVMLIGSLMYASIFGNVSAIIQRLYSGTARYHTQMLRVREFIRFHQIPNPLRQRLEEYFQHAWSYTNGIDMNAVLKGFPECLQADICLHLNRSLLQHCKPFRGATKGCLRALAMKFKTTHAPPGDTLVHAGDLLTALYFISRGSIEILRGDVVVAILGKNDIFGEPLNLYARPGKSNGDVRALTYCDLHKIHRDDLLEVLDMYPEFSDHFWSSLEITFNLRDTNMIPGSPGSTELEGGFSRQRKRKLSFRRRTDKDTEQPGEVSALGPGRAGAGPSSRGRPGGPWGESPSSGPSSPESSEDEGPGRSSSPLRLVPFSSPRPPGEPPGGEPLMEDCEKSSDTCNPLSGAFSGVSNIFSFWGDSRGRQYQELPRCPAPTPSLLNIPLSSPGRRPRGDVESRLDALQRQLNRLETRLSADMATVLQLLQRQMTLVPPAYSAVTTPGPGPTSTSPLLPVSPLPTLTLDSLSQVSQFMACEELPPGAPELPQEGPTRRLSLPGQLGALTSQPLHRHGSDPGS
row,SMILES,"hERG current change (%, negative = inhibition) at 10uM [%]"
1,N#Cc1ncc(-c2ccc3c(c2)OCCOCCOCCOCCO3)nc1C#N,-69
2,COc1cc(Cl)c(C)cc1NC(=O)CSc1nnc(-c2ccccn2)n1Cc1ccco1,-29.5
3,CCOc1ccc(NC(=O)c2cc3c(C)nc4ccccc4c3o2)cc1,9.38
4,Cc1ccc(S(=O)(=O)N2CCOCC2)cc1NC(=O)CSc1nnc2cc(C)c3ccccc3n12,-61.8
5,Cc1ccc[n+](CC(=O)Nc2ccc(Cl)c([N+](=O)[O-])c2)c1.[Cl-],7.66
6,COc1ccc(-c2onc(C)c2-c2ccccc2)c(O)c1,10.9
7,CC(C)(C)OC(=O)N1CCC(NC(=O)c2nc[nH]c2C(=O)N2CCc3ccccc3C2)CC1,-22.9
8,O=C(NNC(=O)C1CCCCC1)c1ccco1,10.6
9,Cc1ccc(N2C(=O)C(Cc3ccccc3)NC2=S)cc1 (stereo not shown),-6.4
10,Cc1c(NC(=O)COC(=O)c2ccccc2Cl)c(=O)n(-c2ccccc2)n1C,-16.8
11,CC(C#N)On1c(SC(C)C#N)nc2ccccc2c1=O (stereo not shown),-19.6
12,N=C1/C(=C\c2ccc(Br)o2)C(=O)N=C2SC(CC(=O)N3CCOCC3)=NN12,20.8
13,CC1C/C(=N\NC(=O)c2ccc([N+](=O)[O-])cc2)CC(C)(C)C1 (stereo not shown),-7.35
14,COc1ccc(OC)c(S(=O)(=O)NCC(c2ccco2)N2CCc3ccccc32)c1 (stereo not shown),-18
15,CCC(CC)C(=O)NCCc1cc2ccc(C)cc2[nH]c1=O,13.2
16,COc1ccc(C(=O)N2CCOC2CNC(=O)C(=O)NCCc2ccccc2OC)cc1 (stereo not shown),1.61
17,COc1c2ccoc2cc2oc(C)cc(=O)c12,5.06
18,O=C(Cn1cc(/C=N/NC(=O)c2cccc(C(F)(F)F)c2)c2ccccc21)Nc1ccc(F)cc1,-0.106
19,Cc1cccc2c(=O)c(-c3ccc4c(c3)OCO4)c(NC(=O)c3ccco3)oc12,1.12
20,O=C1CC(c2ccccc2)CC(=O)N1c1ccccc1,-16.4
21,CC1CN(c2ccnc3cc(Cl)ccc23)CC(C)O1 (stereo not shown),-39.7
22,CCCc1cc(=O)oc2cc(C)cc(OCC(=O)NC(Cc3c[nH]c4ccc(O)cc34)C(=O)O)c12 (stereo not shown),13.9

row,SMILES,"hERG current change (%, negative = inhibition) at 10uM [%]"
1,CC(C)(CO)CNC(=O)CCc1nnc(C2(c3ccc(Cl)cc3)CCC2)o1,6.43
2,O=C(Nc1nccs1)c1ccc2c(c1)C(=O)N(Cc1cccnc1)C2=O,-4.17
3,Cn1c(=O)n(C)c2cc(NS(=O)(=O)c3ccccc3[N+](=O)[O-])ccc21,8.19
4,COC(=O)C1=C(c2c(C)noc2C)C[C@@H]2CC[C@H]1N2C(=O)NCCNC(C)=O,22.2
5,CCCn1c(C2CCCN2c2nc(-c3ccc(C)cc3)cs2)nc2cc(Cl)c(N3CCCCC3)cc21 (stereo not shown),18.8
6,Cc1nn(CCCC(=O)O)c(C)c1[N+](=O)[O-],12.3
7,Cn1c(Cc2ccccc2)nnc1SCC(=O)N1CCCCC1,9.84
8,O=C(NCC1CCCO1)c1ccc2c(c1)N(Cc1ccccc1)CCS2 (stereo not shown),-14.6
9,Cc1nc(CCNC(=O)CC2C(=O)NCCN2Cc2ccccc2)nc2c1CCC2 (stereo not shown),6.51
10,NC(=O)CSc1nc2c(sc3ccccc32)c(=O)n1CCCN1CCOCC1,-52.8
11,Cc1ccccc1NC(=O)NC1(C(=O)N2CCN(C)CC2)CCCCC1,18.4
12,Cc1cccc(N2CCN(C(=O)C(Cc3ccccc3)n3cccc3)CC2)c1C (stereo not shown),-0.223
13,O=C(CCCCCCN1C(=O)c2ccccc2C1=O)NC1CCCCC1,19.2
14,O=C1Nc2ccccc2C1(O)Cc1ccccn1 (stereo not shown),12.2
15,O=C(Nc1cccc(F)c1)N1CCCCCC1,10.7
16,Br.c1ccc(C2CNCc3c2ccc2ccccc32)cc1 (stereo not shown),-31.6
17,Cc1ccccc1NC(=O)c1cccc(NC(=O)c2ccccc2C(=O)O)c1,12.7
18,COC(=O)CSC1=C(C#N)C(c2ccc(Cl)cc2)C(C(=O)OC)C(=O)N1 (stereo not shown),0.571
19,O=C(Nc1ccc(Oc2ccccc2)nc1)C1CCCCN1Cc1ccco1 (stereo not shown),-18.8
20,CCN(CC)C(=O)Cn1nc(-c2ccncc2)nc1SCC(=O)Nc1ccc(OC)cc1,12.1
21,CC(NC(=O)c1ccc2c(c1)OCCO2)C(=O)O (stereo not shown),-13.3
22,Cl.Clc1cccc(Nc2nc(N3CCOCC3)nc(N3CCOCC3)n2)c1,16.9

row,SMILES,"hERG current change (%, negative = inhibition) at 10uM [%]"
1,N#C/C(=C\c1cn(Cc2ccc(C#N)cc2)c2ccccc12)C(=O)NCc1cccs1,16.2
2,COc1ccc(-c2cn(Cc3ccc(C(=O)NCc4ccc(C)cc4)cc3)c(C(C)N)n2)cc1 (stereo not shown),-2.48
3,COc1cccc(C(=O)c2cc3ccc(O)cc3oc2=O)c1,-17.9
4,COc1cccc(/C=C/c2[nH]c(=O)[nH]c(=O)c2[N+](=O)[O-])c1O,17.8
5,Cc1cc2ccccc2nc1SCC(=O)N1CCCC1,0.96
6,COc1ccc(/C=N/N2CCN(c3ccccc3OC)CC2)cc1OC,-19.7
7,Cc1cc(C)c(NC(=O)C2CC(=O)N(C(C)C)C2)c(C)c1 (stereo not shown),8.97
8,CCCCN(C(=O)c1cnc2n(c1=O)CCS2)c1ccccc1,1.25
9,CCN(CC)CCn1c2c(c(SCC(=O)Nc3ccccc3Cl)nc1=O)CCCC2,-55.6
10,COC(=O)C(NC(=O)CCC(=O)N[C@@H](C(=O)OC)c1ccccc1)c1ccccc1 (stereo partly shown),9.88
11,Cc1ccc2c(CC(=O)N3CCN(S(=O)(=O)c4cccs4)CC3)coc2c1,-24.8
12,O=C(Nc1ccc(F)cc1)N1CCOCC1,9.84
13,CC(Cl)C(=O)NNC(=O)CNS(=O)(=O)c1ccccc1 (stereo not shown),-0.478
14,O=C1[C@H]2[C@H](C=CC[C@H]2C(=O)N2CCN(c3ccccc3)CC2)CCN1Cc1ccccc1,-2.04
15,CCN(C(=O)COC(=O)c1ccc(OC)c(S(=O)(=O)N(C)Cc2ccccc2)c1)C1CCS(=O)(=O)C1 (stereo not shown),-30.9
16,CCOc1ccccc1NC(=O)CCNS(=O)(=O)c1ccc(NC(C)=O)cc1,1.61
17,Cc1nnc(SCC(=O)Nc2nccs2)n1C(C)C,5.56
18,Cc1ccsc1/C=N/NC(=O)Cc1ccc([N+](=O)[O-])cc1,4.99
19,COCCN=c1scc(-c2cc(OC)ccc2OC)n1/N=C/c1c[nH]c2ccccc12,1.31
20,CCOP(=O)(OCC)c1nc(-c2cccc3ccccc23)oc1NCCc1ccc(OC)cc1,6.73
21,COC(=O)CN1C(=O)[C@@H]2[C@H](C1=O)[C@@H]1CC(C(=O)OC)=C[C@@H](C(=O)OC)[C@@H]3C1=C(C(=O)[C@]3(C)NC(=O)c1ccccc1)[C@@H]2C,13.1
22,CN(C)S(=O)(=O)c1ccc(Cl)c(NC(=O)COC(=O)/C=C/c2ccc3ccccc3n2)c1,1.53

row,SMILES,"hERG current change (%, negative = inhibition) at 10uM [%]"
1,CCN1C(=O)/C(=C2/Sc3ccc(OC)cc3N2C)SC1=Nc1ccc(OC)cc1,14.3
2,COCCn1c(N2CCN(c3ccc(OC)cc3)CC2)nc2c1c(=O)[nH]c(=O)n2C,-25.6
3,C/C(=N\Nc1ccc([N+](=O)[O-])cc1)c1ccc(O)cc1,-1.55
4,CSc1nsc(SC)c1C(=O)NC(=O)Nc1cccnc1,6.89
5,O=C(Nc1ccc(C(=O)N2CCCCC2)cc1)C1=CSCCO1,14.3
6,O=C(C1=C[C@@H](C2CCCCC2)C[C@@H](OCc2ccc(CO)cc2)O1)N1CCOCC1,-23.9
7,CCN(CC)S(=O)(=O)c1ccc(Cl)c(C(=O)NCc2ccco2)c1,-15.9
8,CC(=O)c1cccc(CN2CCN(Cc3ccc(F)cc3)C(CCO)C2)c1 (stereo not shown),-32.9
9,CCCNC(=O)c1onc(CSc2nc3ccccc3[nH]2)c1C(=O)NCCC,-35.7
10,Cc1cccc(N2C(=O)CC(N3CCN(c4cccc(C(F)(F)F)c4)CC3)C2=O)c1 (stereo not shown),6.15
11,Cc1nnc(SCCn2c(N3CCCCC3)nc3c2c(=O)n(C)c(=O)n3C)s1,10.3
12,CC(C)Cc1cc(C(=O)Nc2sc3c(c2C#N)CCCC3)no1,-14.8
13,O=C(CN1CCCCC1)N/N=C/c1cc2ccccc2nc1Cl,-27.9
14,O=C1CC(Sc2nnc(-c3ccccc3O)o2)C(=O)N1c1ccccc1 (stereo not shown),10.6
15,COc1ccc(S(=O)(=O)NC2CC(=O)N(c3cccc(F)c3)C2)cc1OC (stereo not shown),6.15
16,COc1cc(NC(=S)NCCO)c(OC)cc1Cl,2.71
17,CCCn1c(N)c(C(=O)CSc2nc3ccccc3c(=O)n2Cc2ccccc2)c(=O)[nH]c1=O,7.22
18,COc1cc(OC)c(NC(=O)C2CCCN2C(=O)OCc2ccccc2)cc1Cl (stereo not shown),-0.267
19,Nc1cccc(Oc2cnccn2)c1,13.6
